# Inconclusive results and toxic doses are left out. A number of entries come with more than one value. Only these are listed. The source may hold further records. Results that share an entry differ for a reason that is not stated; some may be repeats, others may stem from another dose, organism or construct than stated.
# Test system: L1210 leukemia ip in BDF1 mice, survival T/C
# Experiment: NCI In Vivo Anticancer Drug Screen. Data for tumor model L1210 Leukemia (intraperitoneal) in B6D2F1 (BDF1) mice
# Details: vehicle: saline, higher = longer survival
SMILES,"T/C (endpoint: mean survival time, dose: 5.0 mg/kg/injection, schedule: Q01DX Z (ip))","T/C (endpoint: median survival time, dose: 100.0 mg/kg/injection, schedule: Q01DX009 (ip))"
CC(=O)NC1=C(N2CC2C)C(=O)C(NC(C)=O)=C(N2CC2C)C1=O (configuration not stated),110 % of control and 182 % of control,–
C=CCNC(=O)NCC=C,–,"100 % of control, 122 % of control, 155 % of control"

# Reference: PubChem BioAssay AID248 (DTP/NCI, 2004)
